According to PubChem BioAssay AID686970 (National Center for Advancing Translational Sciences (NCATS), 2013):
Screen size: about 360,000 compounds; about 6,000 (1.7%) were called active. This list was built around the results that the source calls inconclusive (neither active nor inactive); the mix of calls is not that of the screen. Calls come from the whole dose curve; as a rule, active = well fitted cell-killing curve with a large enough effect; inconclusive = small, poorly fitted or top-dose-only effect, or effect the other way; inactive = flat fitted curve, though single readings scatter. Potencies of inconclusive entries are left out as doubtful fits.

assay: qHTS for induction of synthetic lethality in tumor cells producing 2HG: qHTS for the HT-1080-NT fibrosarcoma cell line; details: HT-1080-NT fibrosarcoma viability, CellTiter-Glo ATP luminescence, 48 h; series mostly up to 46.1 µM;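 note: NT is the 2HG producing partner of a matched IDH1 knockdown line; nearly all actives have a fitted effect of over 55% in size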
Procedure, shortened: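 HT-1080-NT fibrosarcoma cells (2HG-overproducing), 750 cells/well in RPMI with 5% FBS, dosed after 2 h and incubated 48 h at 37C. CellTiter-Glo luminescence normalized to DMSO and no-cell wells; concentration-response curves fitted and classed.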
Potency is the fitted concentration of half-maximal effect; tags give direction and shape of the fitted curve.

Question: With `CCOC(=O)CSc1nc2ccc(NC(C)=O)cc2s1` as the compound, how does the Potency read?
Answer: The Potency was “inactive”.

Question: With `CCOc1ccc(-c2cc(C(=O)Nc3ccc(F)cc3)[nH]n2)c(C)c1` as the compound, how does the Potency read?
Answer: Its Potency is inconclusive [rising, partial curve].

Question: With `O=C(c1ccc(Cl)cc1)N1CCN(c2ccnc3cc(Cl)ccc23)CC1` as the compound, how does the Potency read?
Answer: The Potency was inconclusive [cytotoxic, single point].

Question: For `COc1cc(C2CC(=O)N(c3ccc(C)cc3)C(=O)C2)cc(OC)c1OC`, which Potency is on record?
Answer: Its Potency is active: 3.26 µM.

Question: Which Potency does the source give for `Cc1ccccc1-n1c(C)cc(/C=N/Nc2ccc([N+](=O)[O-])cn2)c1C` here?
Answer: Its Potency is active: 23.1 µM.

Question: For `CCOc1ccccc1N1CC(C(=O)Nc2ccccc2CC)CC1=O` (stereo unspecified), which Potency is on record?
Answer: Its Potency is “inactive”.

Question: Which Potency does the source give for `O=C1/C(=C\c2ccccc2)CN(C(=O)CCN2CCCCC2)C/C1=C/c1ccccc1` here?
Answer: The Potency was inconclusive [cytotoxic, full curve].

Question: For `CS(=O)(=O)Nc1cccc(-c2cc(NC=O)c3ncc(-c4ccc(F)cc4)n3c2)c1`, which Potency is on record?
Answer: Its Potency is active: 11.6 µM.

Question: Which Potency does the source give for `CC(C)Cc1csc(NC(=O)c2ccc(Cl)cc2)c1C(=O)O` here?
Answer: Its Potency is inconclusive [cytotoxic, single point].

Question: Which Potency does the source give for `CC1CC1C(=O)Nc1cc(S(=O)(=O)N2CCOCC2)ccc1N1CCCC1` (stereo unspecified) here?
Answer: The Potency was “inactive”.

Question: With `COc1ccc(Oc2nc(-c3ccccn3)nc3ccccc23)cc1` as the compound, how does the Potency read?
Answer: The Potency was inconclusive [cytotoxic, partial curve, poor fit].

Question: Which Potency does the source give for `CCC(C)[C@H](NC(=O)OC(C)(C)C)C(=O)N/N=C/C1=Cc2ccccc2OC1` (stereo partly specified) here?
Answer: The Potency was inconclusive [cytotoxic, single point].

Question: With `COC(CNC(=O)c1ccc2c(c1)ncn2-c1ccc(C)cc1C)OC` as the compound, how does the Potency read?
Answer: The Potency was “inactive”.

Question: For `COc1ccc(OC)c(CNc2ccc3c(c2)CCC3)c1`, which Potency is on record?
Answer: The Potency was “inactive”.

Question: Which Potency does the source give for `Oc1cc(CNC2CCCCC2)c(O)cc1CNC1CCCCC1` here?
Answer: Its Potency is “inactive”.

Question: For `C=CCNC(=S)Nc1sc2c(c1C(=O)OCC)CC(C(C)C)OC2` (stereo unspecified), which Potency is on record?
Answer: Its Potency is active: 6.31 µM.

Question: For `O=C(Nc1ccc(Br)cc1F)c1ccc2c(c1)N(Cc1ccccc1)C(=O)CS2=O` (stereo unspecified), which Potency is on record?
Answer: Its Potency is inconclusive [cytotoxic, single point].

Question: Which Potency does the source give for `CC(C)(C)c1nc2ccccc2c2nnc(SCC(=O)Nc3nc4ccccc4s3)n12` here?
Answer: The Potency was inconclusive [cytotoxic, single point].

Question: Which Potency does the source give for `C[C@@H](NC(=O)/C(C#N)=C/c1ccc(O)c(O)c1)c1ccccc1` here?
Answer: The Potency was inconclusive [cytotoxic, single point].

Question: For `CCOc1ccc(C(C(=O)NC2CCCCC2)N(CCOC)C(=O)c2snc(C(N)=O)c2N)cc1` (stereo unspecified), which Potency is on record?
Answer: The Potency was “inactive”.

Question: For `Cc1c(NC(=O)c2ccc(=O)oc2)c(=O)n(-c2ccccc2)n1C`, which Potency is on record?
Answer: Its Potency is inconclusive [cytotoxic, single point].

Question: Which Potency does the source give for `CCCc1cnc(Nc2nc(C(N)Cc3ccc(C(F)(F)F)cc3)cs2)nc1` (stereo unspecified) here?
Answer: The Potency was active: 16.4 µM.

Question: Which Potency does the source give for `CCN(CC)S(=O)(=O)c1cccc(C(=O)N/N=C/c2cccc(O)c2O)c1` here?
Answer: Its Potency is inconclusive [cytotoxic, partial curve].

Question: For `COc1ccccc1CNC(=O)c1[nH]c(C)c(C(C)=O)c1C`, which Potency is on record?
Answer: Its Potency is “inactive”.

Question: Which Potency does the source give for `Cc1noc(C)c1C(=O)Nc1ccc(Cl)cc1C(F)(F)F` here?
Answer: Its Potency is “inactive”.

Question: With `COc1cc(C2CC(=O)C3=C(C2)Nc2ncnn2C3c2cccs2)cc(OC)c1OC` (stereo unspecified) as the compound, how does the Potency read?
Answer: The Potency was inconclusive [rising, single point].

Question: For `Cn1nc(C(C)(C)C)cc1C(=O)NCc1ccc2c(c1)OCO2`, which Potency is on record?
Answer: Its Potency is inconclusive [cytotoxic, single point].

Question: Which Potency does the source give for `C#Cc1ccc(NC(=O)C2(C)CCN2C(=O)C/C=C/c2ccccc2)cc1` (stereo unspecified) here?
Answer: The Potency was inconclusive [cytotoxic, single point].

Question: Which Potency does the source give for `CCCC(C)n1[nH]c(=O)cc1N` (stereo unspecified) here?
Answer: The Potency was “inactive”.

Question: For `Cc1ccc(C)c(Oc2ncnc(N)c2[N+](=O)[O-])c1`, which Potency is on record?
Answer: The Potency was “inactive”.

Question: For `CS(=O)(=O)c1sc2nc(-c3cccs3)cc(-c3ccccc3)c2c1N`, which Potency is on record?
Answer: Its Potency is “inactive”.

Question: With `CN1C(=O)/C(=C2\SC(N3CCCCCC3)=NC2=O)c2ccccc21` as the compound, how does the Potency read?
Answer: The Potency was inconclusive [rising, partial curve, poor fit].

Question: Which Potency does the source give for `CN1CCN(S(=O)(=O)c2ccc(N(C)Cc3ccc(C(F)(F)F)cc3)c([N+](=O)[O-])c2)CC1` here?
Answer: The Potency was inconclusive [cytotoxic, partial curve].

Question: For `C/C(=C\c1ccco1)C1C(C#N)=C(N)Oc2n[nH]c(-c3ccc(C)cc3)c21` (stereo unspecified), which Potency is on record?
Answer: Its Potency is inconclusive [cytotoxic, single point].

Question: With `CC(=O)C(Sc1ncnc2sc3c(c12)CCCC3)C(C)=O` as the compound, how does the Potency read?
Answer: The Potency was inconclusive [cytotoxic, single point].

Question: For `O=C(CCl)Nc1ccccc1C(=O)NCc1ccccc1`, which Potency is on record?
Answer: The Potency was “inactive”.

Question: With `COc1ccc(N2CCN(C(=O)CSc3nnc(COc4cccc5cccnc45)o3)CC2)cc1` as the compound, how does the Potency read?
Answer: Its Potency is “inactive”.

Question: With `COC(=O)c1ccc(NC(=O)CCN2C(=O)C3C4CCC(C4)C3C2=O)cc1` (stereo unspecified) as the compound, how does the Potency read?
Answer: Its Potency is “inactive”.

Question: For `O=C(CN(c1ccc(F)cc1)S(=O)(=O)c1ccccc1)NCCSC1CCCCC1`, which Potency is on record?
Answer: The Potency was inconclusive [cytotoxic, single point].

Question: With `OC[C@@H](O)[C@H](O)C(/C=N/Nc1ccccc1)=N\Nc1ccccc1` as the compound, how does the Potency read?
Answer: The Potency was inconclusive [cytotoxic, partial curve].

Question: With `CCCCOC(=O)c1ccc(NC(=O)CSc2nnnn2C)cc1` as the compound, how does the Potency read?
Answer: Its Potency is inconclusive [cytotoxic, partial curve, poor fit].

Question: With `CC(=O)c1ccc(NC(=O)c2ccc3snnc3c2)cc1` as the compound, how does the Potency read?
Answer: The Potency was inconclusive [cytotoxic, single point].

Question: With `CC(=O)/C(=N\Nc1ccc(Cl)cc1)Sc1nnc(-c2ccccc2)n1-c1ccccc1` as the compound, how does the Potency read?
Answer: Its Potency is inconclusive [cytotoxic, single point].

Question: Which Potency does the source give for `O=C(/C=C/Nc1ccc(S(=O)(=O)Nc2ncccn2)cc1)c1ccc(Cl)c(Cl)c1` here?
Answer: Its Potency is inconclusive [rising, single point].

Question: With `COc1ccc(CCCNC(=O)C2Cc3c(-c4cccc(C(N)=O)c4)ccnc3O2)cc1` (stereo unspecified) as the compound, how does the Potency read?
Answer: Its Potency is inconclusive [cytotoxic, single point].

Question: Which Potency does the source give for `CCC(COC)NCc1cn(-c2ccc(OC)cc2)nc1-c1cccc(F)c1` (stereo unspecified) here?
Answer: The Potency was inconclusive [cytotoxic, single point].
